# Publication PMC10726135
# This is one part of the list. At the low end of the ranking the order means little. Measured with an extract: partners may take part in the binding.
# Molecular target: T1, HNF4alpha2 (COS-7 nuclear extract) (UniProt P41235)
# T1 sequence: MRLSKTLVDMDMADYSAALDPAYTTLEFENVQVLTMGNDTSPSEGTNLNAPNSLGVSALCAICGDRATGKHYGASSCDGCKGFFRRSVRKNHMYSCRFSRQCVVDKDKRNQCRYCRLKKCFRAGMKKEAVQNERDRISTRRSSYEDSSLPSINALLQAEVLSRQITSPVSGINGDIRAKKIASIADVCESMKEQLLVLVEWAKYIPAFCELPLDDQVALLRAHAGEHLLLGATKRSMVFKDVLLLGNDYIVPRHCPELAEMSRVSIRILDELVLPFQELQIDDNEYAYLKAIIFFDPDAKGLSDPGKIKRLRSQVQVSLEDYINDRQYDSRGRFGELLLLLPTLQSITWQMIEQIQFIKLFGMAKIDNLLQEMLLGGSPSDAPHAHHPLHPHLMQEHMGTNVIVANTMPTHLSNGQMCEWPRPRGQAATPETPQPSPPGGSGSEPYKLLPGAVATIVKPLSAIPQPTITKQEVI
# Assay: protein-binding microarray
# Settings: COS-7 nuclear extract on double-stranded Agilent 4x180k PBM; binding buffer, salt, pH and temperature not given; high values mean tight binding; double strand, one strand shown; sequences stand for … in …GCCTAGGGAGATTAGAGTATCGGTCGA
row,Sequence,binding signal (log2 normalized intensity)
1,CAGCTGGATTGTTACATCATAGTGTTTGCC,1.04
2,AATATTTGCTGTCTCTTCCACCTGGAATGC,0.819
3,ACTGAGGGGTGGGGACCAGTGGGGGGAAGC,-1.03
4,TGCAAGCACACTGTCCTGCTTTGAAGATAA,-0.841
5,TTTCCGAGGAGAGCAAACACCAAGGGCAGA,-1.09
6,TCTTTGTAGGAAGGCTTTGAAGTCTGGTGG,1.75
7,TTTGACACAAAGGGAGGCCTAGACACAGAC,-1.21
8,AACTCCAGCTGGGCATTAAAGGATATCATC,-0.995
9,TTTCCGCTAAGTCCAAAGGTAAAAACTGGC,2.81
10,TCTGCACAAAATACAAGTCGTAAAGACCTT,0.709
11,TATCCCGCTGCTTCCACCAGGGCTAGACCC,-0.257
12,GAGAGTTCCCTTGGAATGCCAGATGACCTT,4.14
13,GAAGGTCAGGAGCCCCACAGAGCAAAGGTC,5.54
14,AAAGCCAACAGTACAGCCTTTGATCTACAG,-0.766
15,ATGCCAAGTTTCAGGCTATGAATGAAGTCT,-0.988
16,TGCCGGGAAAGGCATACGTGCTTAATCCTG,-1.22
17,TATACAGCGTCTAAGAAGATAACATATACT,-1.21
18,CCCAGCCACCAAATCAATCAAACTCTCTGT,-0.0534
19,GTTTGAAGGCTCCGGAAACGTATGACTTTG,0.343
20,TTGTACGCGTCGAACTAGCTTGGTGCAGGG,0.0601
21,TATACATTTTCCCACTTGTATGTCCAAGGG,0.769
22,AGAAATGGCCTTAGGGTGAGGCATCTGGAC,0.212
23,ACAATGTGGGGGTCGGGGCACTGGTCCCCT,0.81
24,TGACAGGTTTCTTGCTGAAGGTAGGACAGG,-0.314
25,AAGTGGTATCCTGCAGTCAGTCTGATTGGT,0.556

row,Sequence,binding signal (log2 normalized intensity)
1,GAATCTTAACCAAAGTGTGATTAACAAGCA,-0.877
2,TAAAGCTGAGGTATTTTTGCAATCCTCCAC,-0.721
3,CTTTTGTGCTCTGTACCCGGCTGCCCGATA,1.1
4,TGACACAGCTGGCCCATGGGCACCTCGTCC,-1.22
5,CTCTTAGTGAAGGATGGGGACCTTGTTACC,1.62
6,ATTATCCCCCGCAACTATTTATGAGTCTTG,1.69
7,CTTTGCTCCCACCCTGCAATTCCCCTGGGC,3.29
8,ATAAGAACACAAAAAGCCTGAGCATCTTAT,-1.15
9,ATGACTCACTCAAGGCAGCTCAGCTAGTGA,-1.05
10,TTGGTGGTGAGGGTGGGCCTGGGGGGAGAC,-1.15
11,TCAAAGTCCAAATAGCGCTAACTCTATATC,0.465
12,TCACTTAAAATGAGACTTCCCAGCTGCTGG,-1.08
13,TCTCTCAGTCTCTGTGGGAGAGTAAGTGCT,-1.2
14,ACCCTCATTTGCTTGACCCGGGTACTGGAA,2.06
15,CTAGGAGCATGTCAAAAGCTAAATACCCTC,-0.98
16,TACTCAAAGGTTAACATTCTTGCTTTCTGA,1.19
17,CTGACTGCTGACCTTTAAGCCTATAGTTTC,2.81
18,AATGCTTTACAAGGTGGTTGCTGTTATCTT,1.65
19,CCGTGACCCTCAGGAACCAAGCATTTTGCA,-1.02
20,AAGAATTCCTAATAATACTGACTGAGAAAC,-1.1
21,GCCAATCTCTGGCATGTATTTATCAACATT,0.315
22,TACTTTGCTTTTATCTACCAGGATGTGTGA,1.77
23,GGGTGTGAGAGAGAAGGCAAGATTTTGTCC,-0.0786
24,CCCCTTTCCACTCTACCGTCCTCCCCCACG,4.28
25,AGGGTGAAAGTACAGTGATGTTTGTCAAAT,1.72

row,Sequence,binding signal (log2 normalized intensity)
1,ATCTAAGGACAAAGTCCAAGGAAGGGCAAA,4.16
2,ATCTGTGCCACAGGTATTTCTGTTGTTGAT,0.909
3,CTGTAAAACTCCTGTGCAAGTAATTAAACA,-0.992
4,TCCAAGGCGGTGTGGAGGTCTACCAGGAAT,-0.419
5,ATTGGAAGCTCTTTCCCTCCACCAAGTTTC,0.191
6,CCCTCGACCTTTGCCCTCCATAAGGGGGAG,6.24
7,TCTTTCTGGAACCTACAGCTGGGGCCACCT,-0.762
8,AAATAAGGAATGTGAAATGAATTTACAAAC,-1.06
9,GAGTCATTATCTTTATTATCCCAGTAGAGA,2.01
10,GAGCAGGCCATGTGCAGAGGAGGGGGCAGG,-1.14
11,CAGAGCCTCCCCATTGTAGATTCAATAATA,1.09
12,CCCTTCCCCCAACAGGGCTCCTGTTCAGCA,2.55
13,ATTTTGCATTGCTCACATAGCTGGGACTGT,-0.861
14,GTGTGTGTGTGTGTGTCTGTAGTTTTCGTT,2.62
15,TGTGAAATGAATTTACAAACAAATGCAAAA,-0.536
16,AGACTTGGGGCCAAAAAATTCCAGGCACAG,-1.23
17,ATCCCATTCCCTCTAATCTGGGACAAGGGG,-0.975
18,ACTTTCCCCCCTCACACTTTGGCTACTCAG,2.8
19,CTCTGAGTTTTGAGTGTGTTTCTTGTTTCA,1.98
20,TTTGTGTGTTCCTTTTTCTGTTCAATGGTG,2.37
21,GGTCTCCTTGCCCCACCCCCCACCCCAGAA,6.86
22,AGTATCCTGGTAGTGCGACAAGAATGTGGT,1.27
23,CCAGCCCCGGGAATTCTGGGTAGTGTAGTT,0.462
